Experimental data taken from publication PMC11141941.
Substitutions are numbered along the chain they refer to. These are yes or no findings as the source states them, for the method shown. Binding seen in cells or lysates may run through a third protein. Some entries that bind do so weakly or less than the wild type. For some assays here: Sequences can lack the tags named with a protein.

Sequences of proteins named here, by UniProt entry; tags and fusion partners are left off.
UniProt P16671: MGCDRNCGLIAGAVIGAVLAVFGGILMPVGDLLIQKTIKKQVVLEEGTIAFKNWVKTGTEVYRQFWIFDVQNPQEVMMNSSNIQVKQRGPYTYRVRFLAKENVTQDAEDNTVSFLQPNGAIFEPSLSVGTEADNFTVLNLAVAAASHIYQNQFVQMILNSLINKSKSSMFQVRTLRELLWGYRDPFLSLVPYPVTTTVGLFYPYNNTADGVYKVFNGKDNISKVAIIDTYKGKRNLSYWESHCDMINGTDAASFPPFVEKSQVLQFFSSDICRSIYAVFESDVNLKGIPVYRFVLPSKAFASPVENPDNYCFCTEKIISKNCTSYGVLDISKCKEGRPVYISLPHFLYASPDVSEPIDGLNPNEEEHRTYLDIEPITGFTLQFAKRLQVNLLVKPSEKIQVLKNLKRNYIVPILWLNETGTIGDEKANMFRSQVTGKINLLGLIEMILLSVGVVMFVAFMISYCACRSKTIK
UniProt Q08857: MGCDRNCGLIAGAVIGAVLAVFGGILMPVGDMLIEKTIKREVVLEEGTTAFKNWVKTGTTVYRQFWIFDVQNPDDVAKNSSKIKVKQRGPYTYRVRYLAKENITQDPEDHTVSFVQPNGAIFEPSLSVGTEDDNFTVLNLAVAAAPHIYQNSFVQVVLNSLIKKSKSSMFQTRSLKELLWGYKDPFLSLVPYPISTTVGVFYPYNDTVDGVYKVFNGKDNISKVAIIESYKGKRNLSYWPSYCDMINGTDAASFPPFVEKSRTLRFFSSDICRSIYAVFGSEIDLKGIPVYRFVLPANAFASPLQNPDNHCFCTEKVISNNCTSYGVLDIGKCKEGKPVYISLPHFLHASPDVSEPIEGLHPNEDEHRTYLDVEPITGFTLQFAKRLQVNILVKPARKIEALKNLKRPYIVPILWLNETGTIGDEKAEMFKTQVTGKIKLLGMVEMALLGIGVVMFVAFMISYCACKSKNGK

What was measured:
[1] = target: T1, Endospanin 1 (Endo1), endogenous mouse (mouse (endogenous in adipose tissue and liver)) (UniProt O89013); test: co-IP; endogenous proteins; mouse liver lysate (Supplemental Figure 6)
T1 sequence: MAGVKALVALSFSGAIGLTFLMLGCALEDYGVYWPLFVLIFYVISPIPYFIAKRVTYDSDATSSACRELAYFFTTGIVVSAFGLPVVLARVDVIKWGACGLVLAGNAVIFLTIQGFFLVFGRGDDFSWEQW

[2] = target: T1, Endospanin 1 (Endo1), endogenous mouse (mouse (endogenous in adipose tissue and liver)); test: co-IP; endogenous proteins; lysates of visceral, gonadal and s.c. adipose tissue of WT mice; immunoprecipitation with Endo1 or CD36 antibodies; TEM buffer with 0.5% Triton X-100, 4°C; Endo1-KO tissues as negative controls
[3] = target: T2, 6myc-tagged Endo1 (Endospanin 1) (UniProt O15243); test: co-IP; HEK293T cells coexpressing 6Myc-Endo1 and Flag-CD36; lysis in TEM buffer (25 mM Tris-HCl pH 7.5, 2 mM EDTA, 10 mM MgCl2) with 0.5% Triton X-100; immunoprecipitation overnight at 4°C, Protein G Sepharose; immunoblot; both orientations; cells with only one construct as controls
T2 sequence: T1 sequence with Y42H, V43A, Y49H, L84F, V87I, D92A, V119I

[4] = target: Flag-tagged CD36 (FLAG-huCD36) (human) (UniProt P16671); test: as above
[5] = target: CD36, endogenous mouse (mouse (endogenous in adipose tissue and liver)) (UniProt Q08857); test: co-IP; endogenous proteins; lysates of visceral, gonadal and s.c. adipose tissue of WT mice; immunoprecipitation with Endo1 or CD36 antibodies; TEM buffer with 0.5% Triton X-100, 4°C; Endo1-KO tissues as negative controls

“CD36, endogenous mouse (from UniProt Q08857 1-472)” was tested, and the binding [1] was “no binding (condition: in liver lysate)” and the binding [2] was “binds”.

For “Flag-tagged CD36 (FLAG-huCD36) (from UniProt P16671 1-472)”, the binding [3] was “binds”.

B1: 6myc-tagged Endo1 (Endospanin 1) (protein, UniProt O15243 1-131)
chain: T1 sequence with Y42H, V43A, Y49H, L84F, V87I, D92A, V119I
For B1, the binding [4] was “binds”.

B2: Endospanin 1 (Endo1), endogenous mouse (protein, UniProt O89013 1-131)
chain: T1 sequence
B2 was tested, and the binding [5] was “binds”.
